According to the supplement of paper PMC3334620:
In all, about 33,000 sequences were measured (“E-score (-0.5 to 0.5)”: median about -0.017, highest 2% from about 0.3 on). The list shows a part of the results.

The sequences below were run against T1, Sut1 (UniProt P53032) (assay: PBM E-score (8-mer binding enrichment) (E-score (-0.5 to 0.5)); higher = stronger / more preferred TF binding; most listed sequences are background and not binding sites). Settings: protein concentration: 200 nM; construct: GST-full length.
T1 sequence: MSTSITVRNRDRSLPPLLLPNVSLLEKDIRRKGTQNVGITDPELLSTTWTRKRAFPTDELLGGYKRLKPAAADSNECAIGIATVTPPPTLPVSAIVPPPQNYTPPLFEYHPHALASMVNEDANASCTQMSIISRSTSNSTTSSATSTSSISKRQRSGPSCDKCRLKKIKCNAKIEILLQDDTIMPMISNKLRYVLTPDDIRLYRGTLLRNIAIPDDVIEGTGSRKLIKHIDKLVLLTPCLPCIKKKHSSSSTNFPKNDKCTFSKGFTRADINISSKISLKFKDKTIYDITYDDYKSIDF
Method in brief: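 Universal all-10-mer Agilent arrays, double-stranded by primer extension on fresh or once-stripped slides, were probed with about 100-200 nM GST-tagged yeast transcription factors made by PURExpress. Fluorescent anti-GST detected bound protein, and masliner normalised the scans. E-scores from the Universal PBM Analysis Suite were given to each ungapped eight-base word pooled with its reverse complement.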
With CTACGGCA the “PBM E-score” value was -0.0588. With GATTTAAC the “PBM E-score” value was 0.255. CCGGCCAA was tested, and the “PBM E-score” value was 0.0275. For AATGCCAG, the “PBM E-score” value was -0.103. In the case of CCTGCATC, the “PBM E-score” value is reported as -0.178. For ACGATACT, the “PBM E-score” value was 0.00477. For ATGCGTAG, the “PBM E-score” value was 0.0426. For CTACATAC, the “PBM E-score” value was 0.103. In the case of CGGCGAGA, the “PBM E-score” value is reported as -0.146. With ATGCCACC the “PBM E-score” value was -0.161. ATTATAGC was tested, and the “PBM E-score” value was 0.0353. GCTGGCGA was tested, and the “PBM E-score” value was -0.0978. In the case of CAGTGGAC, the “PBM E-score” value is reported as -0.146. In the case of ATGCCTCA, the “PBM E-score” value is reported as 0.049. In the case of CGGAGCAG, the “PBM E-score” value is reported as 0.216. TAGTCGAA was tested, and the “PBM E-score” value was 0.163. For AGTACGAA, the “PBM E-score” value was 0.2. In the case of TATATGCA, the “PBM E-score” value is reported as 0.071. In the case of CGCCAGCA, the “PBM E-score” value is reported as -0.0929. In the case of GTAGTAGA, the “PBM E-score” value is reported as -0.0221. For CAACAACA, the “PBM E-score” value was 0.089. With CCGCACCC the “PBM E-score” value was -0.0835. CGCCGACC was tested, and the “PBM E-score” value was -0.215. In the case of ACGCCCAG, the “PBM E-score” value is reported as -0.128. For CGAAGAGA, the “PBM E-score” value was 0.00695. AGGCATCA was tested, and the “PBM E-score” value was -0.134. With TCAGATAA the “PBM E-score” value was 0.108. In the case of AGATCGCA, the “PBM E-score” value is reported as -0.067. In the case of AACAGTCC, the “PBM E-score” value is reported as 0.115. GGCGGGCA was tested, and the “PBM E-score” value was -0.0949. ACGGACCT was tested, and the “PBM E-score” value was 0.339. AGGAAGCG was tested, and the “PBM E-score” value was -0.0473. With AGAAGGTG the “PBM E-score” value was -0.0206. GGGGTAAA was tested, and the “PBM E-score” value was 0.0285. In the case of AGTAGGAG, the “PBM E-score” value is reported as -0.153. With AGAAAGCT the “PBM E-score” value was 0.126. In the case of CTGGATGA, the “PBM E-score” value is reported as -0.113. With GGGACTGA the “PBM E-score” value was -0.185. CCGCTAGA was tested, and the “PBM E-score” value was -0.146. With ATACACTG the “PBM E-score” value was -0.0685. GCTGGGAC was tested, and the “PBM E-score” value was -0.235. For ACACTCGG, the “PBM E-score” value was 0.00116. For GACATACC, the “PBM E-score” value was -0.0943. With AATCTTTC the “PBM E-score” value was 0.158. With AATCCGTA the “PBM E-score” value was 0.00996. For GCACCCTA, the “PBM E-score” value was -0.283. In the case of AATCACTG, the “PBM E-score” value is reported as -0.0225. For GTATGAAC, the “PBM E-score” value was 0.0827. With CACTGCTC the “PBM E-score” value was -0.193. For CGGTGCGC, the “PBM E-score” value was -0.0148. GGTTATAC was tested, and the “PBM E-score” value was 0.132. For CACGTCTA, the “PBM E-score” value was -0.115. CGCGAGCG was tested, and the “PBM E-score” value was -0.018. ATGAGAAT was tested, and the “PBM E-score” value was 0.122. In the case of ATATACCC, the “PBM E-score” value is reported as 0.00468. With AGGTCTGG the “PBM E-score” value was -0.107. For AAGACACT, the “PBM E-score” value was 0.0476. For AGTTCTTA, the “PBM E-score” value was 0.265. CGCACGAG was tested, and the “PBM E-score” value was -0.192. With CTATACAG the “PBM E-score” value was 0.011. CGTGCTGC was tested, and the “PBM E-score” value was -0.239. In the case of AATAGATG, the “PBM E-score” value is reported as 0.0604. With GTTAGTTA the “PBM E-score” value was 0.2. ACACTCGA was tested, and the “PBM E-score” value was -0.106. In the case of GCCGAGCC, the “PBM E-score” value is reported as -0.0648. For CACTGTCC, the “PBM E-score” value was -0.0421. In the case of GTACTTTA, the “PBM E-score” value is reported as 0.0311. In the case of CCCAGCCG, the “PBM E-score” value is reported as -0.222. In the case of CTCTCCGC, the “PBM E-score” value is reported as 0.18. CATTTGAA was tested, and the “PBM E-score” value was 0.129. AACTGATA was tested, and the “PBM E-score” value was 0.141. CTGCAACC was tested, and the “PBM E-score” value was -0.219. In the case of CCCTAGGC, the “PBM E-score” value is reported as -0.079. In the case of GGACCTTA, the “PBM E-score” value is reported as 0.0194. In the case of CGTACTAG, the “PBM E-score” value is reported as -0.084. For TAGTGAAA, the “PBM E-score” value was 0.0592. AGAGGCGG was tested, and the “PBM E-score” value was -0.235. CTACCCGA was tested, and the “PBM E-score” value was -0.172. In the case of ATGACCGA, the “PBM E-score” value is reported as -0.0778. GGTACCAA was tested, and the “PBM E-score” value was -0.168. With ATTTTCTA the “PBM E-score” value was 0.168. With AAAAGTTC the “PBM E-score” value was 0.155. In the case of CGGGCACC, the “PBM E-score” value is reported as -0.0506. For AAACTCTG, the “PBM E-score” value was 0.0958. TATACCCA was tested, and the “PBM E-score” value was -0.101. With ATGCGTAA the “PBM E-score” value was 0.104. For CCCTTGCG, the “PBM E-score” value was -0.327. With AGTGTATC the “PBM E-score” value was 0.107. In the case of CGCAAGTC, the “PBM E-score” value is reported as -0.0634. In the case of AGGGTCGG, the “PBM E-score” value is reported as 0.00639. CGGGTATA was tested, and the “PBM E-score” value was -0.0045. AGAGCACT was tested, and the “PBM E-score” value was -0.0589. With CATAAGGG the “PBM E-score” value was 0.0764. With CCGCTGGC the “PBM E-score” value was -0.262. In the case of GAAACACC, the “PBM E-score” value is reported as 0.043. In the case of AGCCTATA, the “PBM E-score” value is reported as 0.0833. GCCCACTA was tested, and the “PBM E-score” value was -0.133. For AGTCCCCG, the “PBM E-score” value was -0.0846. For AATTGATC, the “PBM E-score” value was 0.0536. AGTGAGAT was tested, and the “PBM E-score” value was -0.0216. In the case of GGTCTAAA, the “PBM E-score” value is reported as -0.034. CTCCACCA was tested, and the “PBM E-score” value was -0.186. ACATACGG was tested, and the “PBM E-score” value was -0.0182. For TAAGACCA, the “PBM E-score” value was 0.0113. With CGAGCTGC the “PBM E-score” value was -0.0444. In the case of ACTTTCTA, the “PBM E-score” value is reported as 0.167. For GAAACAAC, the “PBM E-score” value was 0.107. For GGACCAGA, the “PBM E-score” value was -0.155. In the case of AGAACTGG, the “PBM E-score” value is reported as -0.126. With GGGGGCTA the “PBM E-score” value was -0.316. AACGACCA was tested, and the “PBM E-score” value was 0.113. In the case of AATACTGA, the “PBM E-score” value is reported as 0.126. In the case of AATGGCAT, the “PBM E-score” value is reported as 0.249. ATGCTTCA was tested, and the “PBM E-score” value was -0.0137. With GGAGGACA the “PBM E-score” value was -0.192. With TACAGGGA the “PBM E-score” value was -0.136. With AAGCGACC the “PBM E-score” value was 0.0829. CGTCGGAC was tested, and the “PBM E-score” value was 0.247. With ATCGTACC the “PBM E-score” value was -0.201. In the case of AAGTCCAA, the “PBM E-score” value is reported as 0.203. With CAGCTTAC the “PBM E-score” value was -0.121. With GGTAGGCA the “PBM E-score” value was -0.163. With AATTTCCA the “PBM E-score” value was 0.283. For CACGCAAA, the “PBM E-score” value was 0.0258. With GGGACTAA the “PBM E-score” value was -0.0778. In the case of AAAGGTGC, the “PBM E-score” value is reported as -0.1. In the case of AGCTGCTC, the “PBM E-score” value is reported as -0.101. For CGAGTTGA, the “PBM E-score” value was 0.0421. For GCGCATCA, the “PBM E-score” value was -0.013. GCACGGAA was tested, and the “PBM E-score” value was 0.0509. AGGTAGAA was tested, and the “PBM E-score” value was 0.0219. For AAAAGGGC, the “PBM E-score” value was -0.0466. With AGTGATGA the “PBM E-score” value was -0.0599. With GTGAGTTA the “PBM E-score” value was -0.0473. For CGCGGGAA, the “PBM E-score” value was 0.00645. For CCGCCGAA, the “PBM E-score” value was 0.177. ACCCAGGC was tested, and the “PBM E-score” value was -0.0292. For GGAGATCA, the “PBM E-score” value was 0.071. In the case of CAACTGAA, the “PBM E-score” value is reported as 0.00253. ATGGGGCA was tested, and the “PBM E-score” value was -0.188. With AGTATTAA the “PBM E-score” value was 0.202. For CTCGCAAG, the “PBM E-score” value was -0.0823. ACATCTAT was tested, and the “PBM E-score” value was 0.17. CTCCAGAA was tested, and the “PBM E-score” value was -0.159. In the case of CTCGGGGA, the “PBM E-score” value is reported as 0.164. AAGACATA was tested, and the “PBM E-score” value was 0.116. In the case of AACAAGTC, the “PBM E-score” value is reported as 0.0915. With AGCACCCC the “PBM E-score” value was -0.323. For GGACATAA, the “PBM E-score” value was 0.186. In the case of AGGCTAAC, the “PBM E-score” value is reported as -0.0671. CCTCACTC was tested, and the “PBM E-score” value was 0.0324. In the case of CGGCGGTC, the “PBM E-score” value is reported as -0.16. For CAACACCC, the “PBM E-score” value was -0.118. For GTGTTGTA, the “PBM E-score” value was 0.0707. CTCGCCCC was tested, and the “PBM E-score” value was -0.298. With ATAATAAG the “PBM E-score” value was 0.218. In the case of TAGTAAGA, the “PBM E-score” value is reported as 0.0323. For GTAAAATA, the “PBM E-score” value was 0.145. With AACCGGCT the “PBM E-score” value was -0.121. With ACGCTGAT the “PBM E-score” value was -0.0732. ATAGCTTG was tested, and the “PBM E-score” value was -0.0807. For CCACCTTA, the “PBM E-score” value was -0.132. With CAGTGTCC the “PBM E-score” value was 0.0229. With GTCAGGAA the “PBM E-score” value was -0.188. With ACGGCGTC the “PBM E-score” value was -0.0798. With CGTATAAC the “PBM E-score” value was 0.129. With GCGTCCAC the “PBM E-score” value was -0.17. For AATTGGTG, the “PBM E-score” value was 0.183. With ATACTGCC the “PBM E-score” value was -0.0927. In the case of CATTTCCA, the “PBM E-score” value is reported as 0.00696. With GCTTAAAA the “PBM E-score” value was 0.0188. In the case of AATGAGCG, the “PBM E-score” value is reported as 0.0517.
